Measured values from ChEMBL document CHEMBL4888484, “Replenishing the malaria drug discovery pipeline: Screening and hit evaluation of the MMV Hit Generation Library 1 (HGL1) against asexual blood stage Plasmodium falciparum ,using a nano luciferase reporter read-out” (2022).
Among all 150,000 compounds or so, about 540 (0.36%) showed an effect of 50% or more. The list shows a part of the results.

The molecules below were run on Plasmodium falciparum (assay: Primary screen in NF54 nanoGlo assay, in single point, at 2uM, 72h; a lower Z score goes with more inhibition). Settings: timepoint 72 hour.
Assay type: functional, Erythrocyte

SMILES | % Inhibition [%] | Z score
COc1ccc(CN2CCc3c(c(C(=O)N(C)Cc4cscn4)nn3CC3CC3)C2)cc1 | -6 | 0.7
CC1Oc2ccc(NC(C)c3ncc(-c4ccccc4)o3)cc2NC1=O (stereo unspecified) | -1 | 0.14
Cc1ccc([C@H]2CN(C(=O)c3sccc3Cl)C[C@@H]2N(C)C)cc1 | -12 | 1.66
O=C([C@@H](O)Cc1c(F)cccc1Cl)N1CCCc2occc2C1 | 3 | -0.46
CCNc1ncc(CN2CCC3(CC2)C[C@H](c2ccccc2)CN(C)C3)cn1 | 2 | -0.36
C[C@H](NC(=O)c1n[nH]c2ccccc12)C1(S(C)(=O)=O)CC1 | -43 | 5
CN1C[C@@H](c2ccccc2)CC2(CCN(Cc3noc(C4CC4)n3)CC2)C1 | 6 | -1.13
CCn1cnnc1CNC(=O)Nc1cc(-c2ccccc2)ns1 | -11 | 1.14
CC1(C)CN(S(=O)(=O)C2COC2)[C@H]2COC[C@H]21 | 16 | -1.98
C=CC[C@]1(C(=O)O)CCCN(Cc2cnc(NC(C)C)nc2)C1 | -6 | 1.07
CCn1cc(C(=O)N(C[C@H]2COc3ccccc3O2)C(C)C)c(C)n1 | -20 | 2.52
Cc1ccc(C(=O)NCc2ccc(-c3nc4ccccc4s3)cc2)cc1 | 38 | -5.09
CCOC(=O)c1cc(S(=O)(=O)NCCNS(=O)(=O)CC)c(F)cc1Cl | -5 | 0.6
O=C1NCCCOc2cccc(c2)[C@H]2c3ccc(cc3CCN2C(=O)CCN2CCOCC2)Oc2ccc(O)c1c2 | 39 | -8.79
CCn1cnc2c(N3CC(CN4CCOCC4)C3)ncnc21 | -15 | 2.17
CCCN1C(=O)N(c2cc(C)ccn2)C(=O)[C@@H]1CC | -8 | 0.74
O=C(Cc1c[nH]c2ccccc12)NC1(C(=O)O)CCCC1 | -8 | 1.19
O=C1O[C@H]2CN(c3ncccc3C(F)(F)F)C[C@H]2N1CCN1CCCCC1 | -6 | 0.73
CCc1nccn1CCC(=O)N1C[C@@H]2NC(=O)CN(C3CC3)Cc3cccc(c3)Oc3cccc(c3)CO[C@H]2C1 | -6 | 1.23
CC(C)(CNC(=O)[C@@H]1CCCN1Cc1ccccn1)C1CCOCC1 | -4 | 0.41
COc1ccc(-c2nnc(-c3cccnc3)[nH]2)cc1 | -3 | 0.3
CCC(=O)Nc1c(C)noc1/C=C\c1ccc(S(=O)(=O)NCCC(C)C)cc1 | -11 | 1.48
Cc1ccc(N)c(C(=O)OCc2nnnn2-c2c(C)cccc2C)c1 | -5 | 0.54
Cc1cc(C(=O)Nc2ccc3c(c2F)CCNC3=O)on1 | -7 | 0.7
COc1cccc(CN2CC3(CCN(C(=O)N4CCOCC4)CC3)CC2=O)c1 | 1 | -0.13
Cc1[nH]c2c(CN3CCC(c4ncon4)CC3)cccc2c1C | -7 | 1.16
CC1CCCCN1C(=O)c1ccc(NC(=O)C2CC2c2ccco2)cc1Cl (stereo unspecified) | -15 | 2.14

SMILES | % Inhibition [%] | Z score
COc1ccc(NC(=O)c2ccc3nn(CC(=O)Nc4cccc(C)c4C)c(=O)n3c2)cc1 | -20 | 3.21
CN(C[C@H]1CCOC1)C(=O)NCCOCc1ccccc1 | -4 | 0.59
NC(=O)CN1CCc2c1cccc2C(F)(F)F | -7 | 0.99
Cc1cccc(-n2nc3c(c2NC(=O)[C@H]2CC(=O)N(c4ccccc4)C2)CS(=O)(=O)C3)c1 | -14 | 2.74
COCC(C)C(=O)NCC1CN(S(=O)(=O)c2ccccc2)C2CCN1C2 (stereo unspecified) | -5 | 0.97
CC1(C)CCN(C(=O)c2nc3cccnc3s2)c2ccccc21 | -8 | 0.85
Cc1nc(O)nc(C)c1CCC(=O)NC(c1ccccn1)[C@H]1C[C@H](O)C1 (stereo partly specified) | -14 | 1.27
CC[C@H](NCC1CCN(C(C)=O)CC1)c1ccccc1F | 5 | -0.62
CCc1cc(C(=O)N[C@@H]2COCC[C@@H]2OCc2c(C)noc2C)no1 | -4 | 0.86
Cc1ccc(O[C@H]2CCN(C(=O)CCn3cnc4ccccc4c3=O)C2)nn1 | -9 | 1.02
CCN1C(=O)C2(CCN(Cc3ccccc3Cl)CC2)C[C@H]1C(=O)NC1CCCC1 | 1 | -0.09
COCC(=O)N(Cc1cccc(F)c1)c1ccc(CC(=O)NCc2ccccn2)cc1 | -19 | 1.81
O=C(NCC[C@H](O)c1cccc(Cl)c1)C1CCCC1 | -9 | 1.79
COc1nc(NCC2CCN(CC(C)C)CC2)ncc1F | -2 | 0.24
Cn1c(N)c(NC(=O)c2cccs2)c(=O)[nH]c1=O | 14 | -1.78
CC(C)c1cnc(-c2ccc(NC(=O)NCc3ccon3)cc2)o1 | 24 | -2.72
CCN1CCC(CC(=O)N2CC[C@](c3nnnn3C3CCCC3)(N(CC)CC)C2)CC1 | -8 | 1.08
O=C(O)[C@@H]1CC2(CCNCC2)CN1C(=O)c1cccc(Oc2ccccc2)c1 | -12 | 1.14
CCN[C@H](c1cccnc1)c1csc2ccccc12 | -6 | 0.88
O[C@H]1CN(Cc2cccc3ccccc23)CC[C@@H]1N1CCCCCC1 | -8 | 1.05
CC(=O)Nc1cc(NCC(C)(C)S(C)(=O)=O)ccc1Cl | -8 | 0.72
Cc1cc(CN2CCC[C@H](c3c[nH]c4ncccc34)C2)c(C)nn1 | 2 | -0.28
Cc1nc(NCCc2noc(CO)n2)cc([C@H]2C[C@@H](O)C2)n1 | 9 | -1
CC/C=C(\C)CN1CC[C@H](CNC(=O)C(C)(C)C)C1 | -20 | 2.78
CCCN(C[C@H]1CCCO1)C(=O)c1cc(C)[nH]c(=O)c1 | 2 | -0.33
CCS(=O)(=O)c1ccc(S(=O)(=O)N2CCCc3n[nH]cc32)cc1 | -12 | 1.09
